Reference: PubChem BioAssay AID624296 (National Center for Advancing Translational Sciences (NCATS), 2012)
In all, about 350,000 compounds went through this assay and about 9,900 (2.8%) were called active. Inconclusive results, whose numbers are uncertain, are shown with a selection of clear calls. The call rests on the fitted dose curve; in most records, active means well fitted activation curve with a large enough effect; inconclusive means small, poorly fitted or top-dose-only effect; inactive means no such curve, though single readings can be large or run the other way. Potencies of inconclusive entries are left out as doubtful fits.
Potency means the concentration at half of the fitted maximal effect; tags describe the fitted curve by direction and shape.

Assay: A quantitative high throughput screen for small molecules that induce DNA re-replication in MCF 10a normal breast cells. Further: nearly all actives have a fitted effect of over 50% in size. On activity, positive = re-replication: % of control where 0% means no effect.
Details: MCF 10A DNA re-replication, Hoechst nuclear intensity, 48 h; activity, positive = re-replication: at 46.1 µM (top of the series)
With Cc1ccn2c(C(=O)CSc3ccccc3Cl)c(C)nc2c1 the Potency was inconclusive [activator, partial curve, poor fit]. With COc1ccccc1N1CC(C(=O)OC(C)C(=O)N2CCCc3ccccc32)CC1=O (stereo not drawn) the Potency was inconclusive [activator, partial curve, poor fit]. In the case of CCOC(=O)Nc1cc2c(C)cc(=O)oc2cc1C, the “activity, positive = re-replication” value is reported as inactive: -4.73%. In the case of CC(C)(C)c1ccc(OCCCn2ccnc2)cc1, the Potency is reported as inconclusive [activator, partial curve, poor fit]. In the case of CCCN(CCC)C(=O)c1cc([N+](=O)[O-])cc2c1-c1ccc([N+](=O)[O-])cc1C2=C(C#N)C#N, the Potency is reported as inconclusive [activator, partial curve, poor fit]. For O=C(NCC(c1ccc(F)cc1)N1CCOCC1)c1nn(-c2ccccc2)c(=O)c2ccccc12 (stereo not drawn), the Potency was inconclusive [activator, single point]. In the case of O=C(NC1CCCC1)c1ccc(Cl)s1, the “activity, positive = re-replication” value is reported as inactive: 0.867%. With Cc1ccc(S(=O)(=O)NCC(=O)N2CCCCC2)cc1 the Potency was inconclusive [activator, partial curve, poor fit]. In the case of CC(C)(C)c1ccc(S(=O)(=O)N2C=CC(C(F)(F)F)=NCC2)cc1, the “activity, positive = re-replication” value is reported as inactive: 1.06%. For CN(C(=O)COC(=O)/C=C/c1cn(-c2ccccc2)nc1-c1ccc2c(c1)OCCO2)C1CCS(=O)(=O)C1 (stereo not drawn), the “activity, positive = re-replication” value was inactive: 2.36%. In the case of COc1ccc(Cc2nnc(N/N=C/c3ccc(Br)cc3)[nH]c2=O)cc1OC, the “activity, positive = re-replication” value is reported as inactive: 0.656%. In the case of O=C(NCc1ccc(S(=O)(=O)NC2CCCCC2)s1)c1ccccc1, the Potency is reported as inconclusive [activator, single point]. For Cc1ccc2cc(CCNC(=O)c3cccc([N+](=O)[O-])c3)c(=O)[nH]c2c1C, the “activity, positive = re-replication” value was inactive: -3.45%. For CC(=O)Nc1sc(NC(=O)c2ccco2)nc1-c1cccs1, the Potency was inconclusive [activator, single point]. With Cc1ccc(NC(=O)CN(C)C(=O)C(c2ccccc2)c2ccccc2)cc1 the Potency was inconclusive [activator, single point]. With CCOC(=O)C1CCN(CCC(=O)Nc2ccc(Br)c(C)c2)CC1 the Potency was inconclusive [activator, single point]. In the case of COC1=CC(=O)[C@@]2([C@@H]1O)[C@@H](Cl)C[C@]13C(OC)=C(OC)C(=O)C[C@]21CCN3C, the “activity, positive = re-replication” value is reported as inactive: -1.07%. In the case of CC(=O)c1c(C)n(-c2ccc(Cl)cc2)c2ccc(O)cc12, the Potency is reported as inconclusive [activator, single point]. With CCOc1ccc(C=NNc2ccc(S(=O)(=O)Nc3ccccc3C(=O)O)cc2[N+](=O)[O-])cc1OC the Potency was inconclusive [activator, single point]. In the case of CCN(c1ccccc1)S(=O)(=O)c1cccc(C(=O)NCC(c2ccco2)N2CCCCC2)c1 (stereo not drawn), the “activity, positive = re-replication” value is reported as inactive: 19.3%. For COc1ccc(/C(N)=N/OC(=O)Cc2ccc(C)cc2)cc1OC, the Potency was inconclusive [activator, single point]. With O=C(Nc1ccc(Oc2ccccc2)cc1)c1ccc(Cn2c(=O)[nH]c3ccsc3c2=O)cc1 the Potency was inconclusive [activator, single point]. For COCCCN(C(=S)NC(=O)c1ccc(Br)cc1)c1c(N)n(Cc2ccccc2)c(=O)[nH]c1=O, the “activity, positive = re-replication” value was inactive: 1.08%. In the case of CC(=O)Nc1c(-c2ccccc2)c2cc(Br)ccc2[nH]c1=O, the Potency is reported as active: 0.731 µM. In the case of COc1ccc(C(=O)Cn2cc[n+](C)c2)cc1, the “activity, positive = re-replication” value is reported as inactive: 13.4%. For CC1(C)CCC[C@]2(C)[C@H]3Cc4cc(O)ccc4O[C@]3(C)CC[C@@H]12, the Potency was active: 11.6 µM. For Cc1ccc(C(=O)c2cc(C)sc2N)cc1, the “activity, positive = re-replication” value was inactive: -5.32%. In the case of Cc1ccc(Oc2ccc(-c3nc(N)nc(N)n3)cc2)cc1C, the Potency is reported as inconclusive [activator, single point]. In the case of CCC(c1nnc(SCC(=O)Nc2nnc(-c3ccccc3)o2)o1)N(C)C (stereo not drawn), the “activity, positive = re-replication” value is reported as inactive: 1.54%. For OC(COc1ccccc1)Cn1c2ccccc2c2ccccc21 (stereo not drawn), the Potency was inconclusive [activator, single point]. In the case of COc1ccc(N2C(=O)c3ccccc3NC2c2ccc(OC)c(CSc3ccccn3)c2)cc1 (stereo not drawn), the Potency is reported as inconclusive [activator, single point]. With CC(C)CCNC(=O)C(=O)Nc1ccc2c(c1)N(S(=O)(=O)c1cccs1)CCC2 the Potency was inconclusive [activator, single point]. In the case of CC(=O)COc1cc(C)cc2oc(=O)c(C)c(C)c12, the Potency is reported as inconclusive [activator, single point]. In the case of COCC1CCN(C(=O)c2cc(COc3ccc4ncccc4c3)on2)CC1, the “activity, positive = re-replication” value is reported as inactive: -3.27%. In the case of Cc1nc(NCCc2ccc(O)cc2)c2nnn(Cc3ccccc3)c2n1, the Potency is reported as inconclusive [activator, partial curve, poor fit]. For CC1(C)CC(=O)C2=C(C1)OC(N)=C(C#N)C2C1CC=CCC1 (stereo not drawn), the “activity, positive = re-replication” value was inactive: 0.335%. In the case of O=C(O)c1cccc(OS(=O)(=O)c2cc(Br)ccc2Br)c1, the “activity, positive = re-replication” value is reported as inactive: -0.718%. In the case of COc1ccc(C(CNC(=O)C2CC(=O)N(Cc3ccccc3)C2)N2CCCC2)cc1 (stereo not drawn), the “activity, positive = re-replication” value is reported as inactive: 2.78%. For CCOC(=O)c1c(NCC2CCCO2)c2ccccc2[nH]c1=O (stereo not drawn), the “activity, positive = re-replication” value was inactive: -0.507%. In the case of CC(C)c1ccc(S(=O)(=O)/N=C2/C=C(Sc3ncn[nH]3)C(=O)c3ccccc32)cc1, the Potency is reported as active: 3.26 µM. With Nc1c(C(=O)c2ccc(Br)s2)oc2ccccc12 the Potency was inconclusive [activator, full curve]. For CSCCC(NS(=O)(=O)c1ccc(Cl)cc1)C(=O)OCc1c(Cl)cccc1Cl (stereo not drawn), the Potency was active: 16.4 µM. With COc1ccccc1N1CCN(C(=O)c2cccc(C(=O)N3CCN(c4ccccc4OC)CC3)c2)CC1 the “activity, positive = re-replication” value was inactive: 14.1%. In the case of CCOc1ccc(CCNC(=O)Cn2c(-c3nonc3N)nc3ccccc32)cc1OCC, the “activity, positive = re-replication” value is reported as inactive: 18.4%. With CC(=O)NC(C)c1ccc(C(=O)CSc2nnc(C3CC3)n2C2CC2)cc1 (stereo not drawn) the “activity, positive = re-replication” value was inactive: -25.8%. For COc1c(C(O)CC(C)C)ccc2c1C(=O)OCc1cc(C)cc(O)c1O2 (stereo not drawn), the “activity, positive = re-replication” value was inactive: 5.03%. In the case of Cc1cc(/C=N/n2cnnc2)c(C)n1-c1ccc(OCc2ccc(Cl)cc2)cc1, the Potency is reported as inconclusive [activator, single point]. For FC(F)(F)Oc1ccc(NC(=S)Nc2ccccc2N2CCOCC2)cc1, the “activity, positive = re-replication” value was inactive: 28.8%. With NC(=O)CNC(=O)[C@@H]1CC2(CC(c3ccc(Cl)cc3)=NO2)CN1C(=O)c1ccccc1 (stereo partly drawn) the Potency was inconclusive [activator, full curve, poor fit]. For Cc1cccc(C)c1OCC(O)CNC(C)c1ccccc1 (stereo not drawn), the Potency was inconclusive [activator, partial curve, poor fit]. For CCOC(=O)c1c(NC(C)=O)sc2c(OCC(O)CNC(C)(C)C)c(Br)ccc12 (stereo not drawn), the Potency was inconclusive [activator, partial curve, poor fit]. With Cc1cccnc1Nc1nc(-c2ccc(O)c(O)c2)cs1 the “activity, positive = re-replication” value was inactive: 5.45%. For C=CC(C)(C)c1[nH]cnc1/C=C1\NC(=O)C(C(C)C)NC1=O (stereo not drawn), the Potency was inconclusive [activator, single point]. In the case of Oc1ccc(N2CCN(C(c3ccncc3)c3nnnn3C3CCCC3)CC2)cc1 (stereo not drawn), the Potency is reported as inconclusive [activator, single point]. In the case of C=CCc1cccc(/C=N/NC(=O)CCC(=O)Nc2ccc(F)cc2)c1O, the “activity, positive = re-replication” value is reported as inactive: 17.6%. For COc1ccccc1-c1cc(C(F)(F)F)c(C#N)c(=O)[nH]1, the Potency was inconclusive [activator, single point]. In the case of CCOC(=O)COc1ccc2c(C#N)c3ccccn3c2c1, the Potency is reported as active: 20.6 µM. For O=C1CCc2nc3ccccc3c(=O)n2N1, the “activity, positive = re-replication” value was inactive: -1.92%. For Cc1nn(C)cc1/C=N/NC(=S)Nc1ccccc1, the “activity, positive = re-replication” value was inactive: 12.5%. In the case of O=C(Cn1c(NCCCO)nc2ccccc21)c1ccc([N+](=O)[O-])cc1, the Potency is reported as inconclusive [activator, partial curve, poor fit]. With CC1CCN(C2=C(NS(=O)(=O)c3ccc(Br)cc3)C(=O)c3ccccc3C2=O)CC1 the “activity, positive = re-replication” value was inactive: 2.45%. In the case of O=C(c1ccc(CN2CCOCC2)cc1)N1CCN(c2ccccc2)CC1, the “activity, positive = re-replication” value is reported as inactive: 4.18%. With Cc1nn(C)c(C(=O)Nc2ccn(C34CC5CC(CC(C5)C3)C4)n2)c1[N+](=O)[O-] the Potency was inconclusive [activator, partial curve, poor fit]. With Cc1[nH]c2ccccc2c1/C=N/Nc1cccc(C(=O)O)c1 the “activity, positive = re-replication” value was inactive: -3.27%. In the case of COc1ccc(N2C(S)=C(C#N)C(=O)NC2c2ccco2)cc1 (stereo not drawn), the Potency is reported as inconclusive [activator, partial curve, poor fit]. In the case of O=[N+]([O-])c1cccc(COc2ccc(CN3CCOCC3)cc2)c1, the Potency is reported as inconclusive [activator, partial curve, poor fit]. With CCCOC(=O)c1ccc(Oc2c(-c3ccc(O)cc3O)n[nH]c2C)cc1 the Potency was inconclusive [activator, partial curve, poor fit]. For O=C(NCCc1ccccc1)C(=O)NCC1OCCN1S(=O)(=O)c1cc(F)ccc1F (stereo not drawn), the “activity, positive = re-replication” value was inactive: 5.85%. With COC(=O)/C(=C/c1ccccc1)NC(=O)c1ccco1 the “activity, positive = re-replication” value was inactive: 9.55%. In the case of CCOC(=O)/C=C/C(=O)Nc1ccc(S(=O)(=O)N2CCCCCC2)cc1, the Potency is reported as inconclusive [activator, single point]. In the case of O=C(NCC1CCCO1)C(=O)c1c[nH]c2ccccc12 (stereo not drawn), the Potency is reported as inconclusive [activator, full curve, poor fit]. With CCC(=O)N1CCc2cc(S(=O)(=O)CCC(=O)NCc3cccs3)ccc21 the Potency was inconclusive [activator, partial curve, poor fit]. With COc1ccccc1NCC(=O)NNCC(=O)Nc1ccc(F)c(Cl)c1 the Potency was inconclusive [activator, partial curve, poor fit].
